Read counts are not given, so values of variants with three or more changes are uncertain.
B1: CPEB3 Ribozyme (parent)
chain: UAACAGGGGGCCACAGCAGAAGCGUUCACGUCGCAGCCCCUGUCAGAUUCUGGUGAAUCUGCGAAUUCUGCUGUAUAUCUC

Variants of: B1
Experiment: self-cleavage, relative activity (ratio to wild type); higher = more cleavage; in vitro, sequencing
In short: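 CPEB3 self-cleaving ribozyme mutant libraries were made by rounds of error-prone PCR, barcoded, and transcribed in vitro with T7 RNA polymerase for 5 hours at 37°C. Cleavage occurred during transcription and a 15 min DNase I step before EDTA stop. RNAs were reverse transcribed with template switching and Illumina-sequenced, with DNA sequencing mapping barcodes to variants. Relative activity is the variant's cleaved/total read fraction divided by wild type's (minimum 5 reads), averaged across three batches.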

Variant	self-cleavage
UAACAGGGGGCCACAGCAGAAGCGCUCACGCCGCAGCCCCUGUCAGAUUCUGGCGAAUCUGCGAAUCCUGCUGUAUAUCUC [U25C U31C U54C U67C]	0.11
UAACAGGGGGCCACAGCAGAAGCGCUCACGCCGCAGCCCCUGUCAGAUUCUGGCGAAUCUGCGAAUUCUGCUGUAUAUCCC [U25C U31C U54C U80C]	0.32
UAACAGGGGGCCACAGCAGAAGCGCUCACGCCGCAGCCCCUGUCAGAUUCUGGUGAAUCUGCGAAUACUGCAGUAUAUCUC [U25C U31C U67A U72A]	0.11
UAACAGGGGGCCACAGCAGAAGCGCUCACGCCGCAGCCCCUGUCAGAUUCUGGUGAAUCUGCGAAUUCUGCUGCAGAUCUC [U25C U31C U74C U76G]	0.07
UAACAGGGGGCCACAGCAGAAGCGCUCACGCCGCAGCCCCUGUCAGAUUCUGGUGAAUCUGCGAAUUCUGCUGUAUACCUC [U25C U31C U78C]	0.22
UAACAGGGGGCCACAGCAGAAGCGCUCACGCCGCAGCCCCUGUCAGAUUCUGGUGAAUCUGCGAAUUCUGCUGUAUAUCCC [U25C U31C U80C]	0.3
UAACAGGGGGCCACAGCAGAAGCGCUCACGGCGCAGCCCCUGUCAGAUUCUGGUGGAUCUGCGAUUUCUGCUGUGUAUCUC [U25C U31G A56G A65U A75G]	0.09
UAACAGGGGGCCACAGCAGAAGCGCUCACGGCGCAGCCCCUGUCAGAUUUUAGUGAAUCUGCGAAUUCUGCUGUACAUGUC [U25C U31G C50U G52A U76C C79G]	0.1
UAACAGGGGGCCACAGCAGAAGCGCUCACGGCGCACCCCCUGUCGGAUACUGGUGAAUCUGCGAAUUCUGCUGUAUAUCUC [U25C U31G G36C A45G U49A]	0.17
UAACAGGGGGCCACAGCAGAAGCGCUCACGGCGCAGCCCCUGUCAGAAUCUGGUGAAUCUGCGAAUUCUGCUGUAUAUCUC [U25C U31G U48A]	0.46
UAACAGGGGGCCACAGCAGAAGCGCUCACGGCGCAGCCCCUGUCAGAUUCUGGCGAAUCAGCGAAUUCUGCUGUAUAUCUC [U25C U31G U54C U60A]	0.38
UAACAGGGGGCCACAGCAGAAGCGCUCACGGCGCAGCCCCUGUCAGAUUCUGGUGAAUCUGCGAAGUCUGCUGUAUAUCUC [U25C U31G U66G]	0.17
UAACAGGGGGCCACAGCAGAAGCGCUCACGUCGCAGCCCCAGUCAGGUUCUGGUGAAUCUGCGAAUUCUGCUGUUUAUCUC [U25C U41A A47G A75U]	0.08
UAACAGGGGGCCACAGCAGAAGCGCUCACGUCGCAGCCCCAGUCAGUUUCUGGCGAAUCUGCGAAUUCUGCUGUAUAUCUC [U25C U41A A47U U54C]	0.07
UAACAGGGGGCCACAGCAGAAGCGCUCACGUCGCAGCCCCAGUCAGAUUCUGGUGGAUCUGCGAUCUCUGCUGUAUAUCCC [U25C U41A A56G A65U U66C U80C]	0.13
UAACAGGGGGCCACAGCAGAAGCGCUCACGUCGCAGCCCCAGUCAGAUUCUGGUGAGUCUGCGAAUUCUGCUGUAAAUCUC [U25C U41A A57G U76A]	0.14
UAACAGGGGGCCACAGCAGAAGCGCUCACGUCGCAGCCCCAGUCAGAUUCUGGUGAAUCUGCGGAUUCUGCUGUAUACCUC [U25C U41A A64G U78C]	0.15

Variant	self-cleavage
UAACAGGGGGCCACAGCAGAAGCGCUCACGUCGCAGCCCCAGUCAGAUUCUGGUGAAUCUGCGAAUUCUGUUGUAUAUCUC [U25C U41A C71U]	0.12
UAACAGGGGGCCACAGCAGAAGCGCUCACGUCGCAGCCCCAGUCAGAUUCUUGUGAAUCAGCGAAUUCUGCUGUAUAUCUC [U25C U41A G52U U60A]	0.1
UAACAGGGGGCCACAGCAGAAGCGCUCACGUCGCAGCCCCAGUCAGAUUCUUGUGAAUCUGCGAAUCCUGCUGUAUAUCUC [U25C U41A G52U U67C]	0.05
UAACAGGGGGCCACAGCAGAAGCGCUCACGUCGCAGCCCCAGCCAGAUUCUGGUGAAUCUGCGAAUUCUGCUGUAUAUCUC [U25C U41A U43C]	0.23
UAACAGGGGGCCACAGCAGAAGCGCUCACGUCGCAGCCCCAGCCAGAUUCUGGUGAAUCUGCGAAUUCUGCUGAAUAUCUC [U25C U41A U43C U74A]	0.06
UAACAGGGGGCCACAGCAGAAGCGCUCACGUCGCAGCCCCAGUCAGAUACUGGCGAAUCUGCGAAUUCUGCUGUAUACCUC [U25C U41A U49A U54C U78C]	0.04
UAACAGGGGGCCACAGCAGAAGCGCUCACGUCGCAGCCCCAGUCAGAUACUGGUGAAUCUGCGAAUUCCGCGGUACAUCUC [U25C U41A U49A U69C U72G U76C]	0.06
UAACAGGGGGCCACAGCAGAAGCGCUCACGUCGCAGCCCCAGUCAGAUACUGGUGAAUCUGCGAAUUCUGCUGUAUAUCCC [U25C U41A U49A U80C]	0.33
UAACAGGGGGCCACAGCAGAAGCGCUCACGUCGCAGCCCCAGUCAGAUUCAGGCGAUUCUGCGAAUUCUGCUGUAUAUCUC [U25C U41A U51A U54C A57U]	0.35
UAACAGGGGGCCACAGCAGAAGCGCUCACGUCGCAGCCCCAGUCAGAUUCUGGCGAAUCCGCGAAUUCUGCUGUAUAUCUC [U25C U41A U54C U60C]	0.1
UAACAGGGGGCCACAGCAGAAGCGCUCACGUCGCAGCCCCAGUCAGAUUCUGGUGAAUCUGCGAAUUCUGCCGUAUAUCUC [U25C U41A U72C]	0.36
UAACAGGGGGCCACAGCAGAAGCGCUCACGUCGCAGCCCCCGUCUGAUUCUGGUGAAUCUGCGAAUUCUGCUGCAUAUCUC [U25C U41C A45U U74C]	0.3
UAACAGGGGGCCACAGCAGAAGCGCUCACGUCGCAGCCCCCGUCAGGUUCUGGAGUAUCUGCGAAUUCUGCUGUAUCUCUC [U25C U41C A47G U54A A56U A77C]	0.12
UAACAGGGGGCCACAGCAGAAGCGCUCACGUCGCAGCCCCCGUCAGAUUCUGGUGGGUCUGCGAACUCUGCUGUAUAUCUC [U25C U41C A56G A57G U66C]	0.1
UAACAGGGGGCCACAGCAGAAGCGCUCACGUCGCAGCCCCCGUCAGAUUCUGGUGGAUCUGCGGAUUCUGCUGUAUUUCUC [U25C U41C A56G A64G A77U]	0.44
UAACAGGGGGCCACAGCAGAAGCGCUCACGUCGCAGCCCCCGUCAGAUUCUGGUGUAUCUGCGAAUUCUGCUGUAUAUCUC [U25C U41C A56U]	0.32
UAACAGGGGGCCACAGCAGAAGCGCUCACGUCGCAGCCCCCGUCAGAUUCUGGUGAAUCUGCGGAUUCUGCUGUAUAUCUC [U25C U41C A64G]	0.1

— the RNAGym collection of RNA variant scans (doi:10.1093/nar/gkz1192)
